# Hit rate of the full screen: of about 420,000 compounds, about 64,000 (15%) were called active. Inconclusive results, whose numbers are uncertain, are shown with a selection of clear calls. The call rests on the fitted dose curve; in most records, active means well fitted inhibition curve with a large enough effect; inconclusive means small, poorly fitted or top-dose-only effect; inactive means flat fitted curve, though single readings scatter. No potency is given beside an inconclusive call; the fits are too rough.
# Assay: qHTS for Inhibitors of human tyrosyl-DNA phosphodiesterase 1 (TDP1): qHTS in cells in absence of CPT; further: nearly all actives have a fitted effect of over 55% in size
# Settings: DT40 Tdp1-/- hTDP1 cells, no CPT, ATP luminescence, 48 h; activity change, negative = growth inhibition: at 46.2 µM (top of the series)
# Method in brief: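 Stably hTDP1-transfected Tdp1-null chicken DT40 cells were treated with library compounds minus camptothecin and grown for at least 48 hr at 37 °C, after which cellular ATP was quantified by luminescence.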
# On the % scale 0 is the no-effect control and ±100 the full control effect; potency means the concentration at half of the fitted maximal effect; tags describe the fitted curve by direction and shape.
SMILES,Potency,"activity change, negative = growth inhibition"
CCC(=O)c1cn(CCOc2ccccc2OC)c2ccccc12,active: 23.1 µM,
CCCNc1c(NC(=O)COc2ccc(Cl)cc2)c(=O)oc2ccccc12,"inconclusive [inhibitor, partial curve]",
COc1cc(C(=S)N2CCOCC2)cc(OC)c1OC(=O)c1ccccc1Cl,"inconclusive [inhibitor, single point]",
Cc1ccc(-n2c(SCC(=O)NCc3ccco3)nc3c(sc4ccccc43)c2=O)cc1,"inconclusive [inhibitor, full curve, poor fit]",
COc1ccc([C@H]2CC(=O)C=C(c3ccc4c(c3)OCO4)C2)cc1OC,"inconclusive [inhibitor, full curve, poor fit]",
COC(=O)CCC(=O)NC(=S)Nc1sc(C)c(C)c1C(N)=O,active: 0.146 µM,
CC(C)c1ccc(OCC(=O)NCCO)cc1,"inconclusive [inhibitor, single point]",
Cc1cnc(-n2ncc(C(=O)NCc3ccncc3)c2C2CC2)nc1-c1cccs1,"inconclusive [inhibitor, single point]",
CCOC(=O)c1c(C)[nH]c(C(=O)OCC(=O)NCc2ccco2)c1C,active: 23.1 µM,
C=CCn1c(SCC(=O)NC2CCCC2)nnc1-c1cccnc1,,inactive: 16.1%
CC1CCC(NC(=O)c2ccc(N3CCCC3=O)cc2)CC1 (configuration not stated),,inactive: 2.73%
Cc1cccc(NC(=O)c2nc[nH]c2C(=O)NCC(=O)OCc2ccccc2)c1,"inconclusive [inhibitor, partial curve]",
Cc1cc(C(=O)N/N=C/c2cccc([N+](=O)[O-])c2)c(C)n1-c1ccccc1,active: 23.1 µM,
CCCCn1cnc2c(SCCc3ccccc3)nc(N)nc21,"inconclusive [inhibitor, single point]",
Cc1ccccc1NC(=O)COC(=O)CCSc1ccccc1,,inactive: -22.8%
N#C/C(=C\c1ccc(O)c(O)c1)C(=O)NCCCCc1ccccc1,active: 8.41 µM,
COc1ccc(CC(=O)Nc2cccc(C(=O)NN3C(=O)c4ccccc4C3=O)c2C)cc1,,inactive: -5.71%
C=CCOc1ccc(/C=N\NC(N)=S)cc1,"inconclusive [inhibitor, single point]",
Cc1ccc(S(=O)(=O)CC(=O)c2ccc3c(c2)OCCO3)cc1,,inactive: -8.04%
Cc1ccc(N2CC(C(=O)Nc3nnc(SCCN4CCOCC4)s3)CC2=O)cc1C (configuration not stated),,inactive: -8.54%
COCCN1Cc2cccc(C(=O)Nc3ccccc3OC)c2C1=O,,inactive: -19.1%
CC1SC(c2ccc(F)cc2)NC1=O (configuration not stated),,inactive: -4.1%
CSc1ccc(/C=C/C(=O)NC(=O)c2ccccc2O)cc1,"inconclusive [inhibitor, single point]",
CC(C)c1ccc(NC(=O)CCCN2C(=S)NC(C)(C)CC2C)cc1 (configuration not stated),"inconclusive [inhibitor, single point]",
Cc1ccc(NC(=S)Nc2ccc(Cl)c(Cl)c2)c(OC(F)F)c1,active: 18.4 µM,
CCOC(CC(=O)NNC(=O)c1c(-c2c(Cl)cccc2Cl)noc1C)OCC,,inactive: -21.1%

SMILES,Potency,"activity change, negative = growth inhibition"
C/C(=N\NC(=O)c1c(Cl)c(C)nn1C)c1ccc(NC(=O)c2ccncc2)cc1,active: 18.4 µM,
C=CCC(C)(NCc1ccccc1)c1ccc(C)cc1 (configuration not stated),"inconclusive [inhibitor, single point]",
CC(C)n1c(O)c(N=NC(=O)c2ccccc2NS(=O)(=O)c2cccs2)c2ccccc21,"inconclusive [inhibitor, single point]",
Cc1cc(C)n(CCCNC(=O)c2ccco2)n1,,inactive: 1.42%
NC(=O)COc1ccc(-c2noc(COc3ccccc3[N+](=O)[O-])n2)cc1,,inactive: -15.4%
CCOC(=O)c1c(-c2ccc(C)cc2)csc1NC(=O)c1cc(=O)c2cc(C)ccc2o1,,inactive: 4.42%
COc1ccc(/C=N/NC(=O)c2sc(C)nc2C)cc1,"inconclusive [inhibitor, single point]",
C=CCNc1nc(N)c(C(=C(C#N)C#N)c2ccccc2)s1,"inconclusive [inhibitor, single point]",
COCC(=O)OCC(=O)Nc1cc(C(C)(C)C)nn1-c1ccccc1,,inactive: -21.9%
O=C1CC(C(=O)N2CCc3ccccc32)CN1c1ccc(F)cc1 (configuration not stated),,inconclusive: -30.3% [inhibitor]
NS(=O)(=O)c1ccc2nc(NC(=O)Nc3ccc(F)cc3)sc2c1,"inconclusive [inhibitor, partial curve, poor fit]",
O=C(Cn1c(=O)nc(-c2ccccc2)c2ccccc21)NCCc1ccccc1,,inactive: -2.49%
CC(C)C(C(=O)OCC(=O)c1cccc([N+](=O)[O-])c1)N1C(=O)[C@@H]2[C@H]3CC[C@H](C3)[C@@H]2C1=O (some centres not stated),,inconclusive: -31.8% [inhibitor]
COc1ccc2ccccc2c1CN1CCN(C(=O)c2ccco2)CC1,active: 14.6 µM,
CCCc1cc(=O)oc2c(C)c(O[C@@H]3O[C@H](CO)[C@@H](O)[C@H](O)[C@H]3O)ccc12,active: 7.31 µM,
C=CCOn1c(-n2nc(C)cc2C)nc2ccccc2c1=O,,inactive: -29.4%
Cc1ccccc1N1CCN(c2ncnc3scc(-c4cccs4)c23)CC1,active: 9.2 µM,
COc1ccc([C@@H]2[C@@H]3C(=O)N(C(C)(C)C)C(=O)[C@@H]3[C@]3(Cc4ccccc4)C(=O)N(c4ccccc4)C(=O)N23)cc1,,inactive: -11.7%
COCc1c(C(=O)NC2CCCCCC2)oc2ccccc12,"inconclusive [inhibitor, single point]",
O=C1c2oc3ccccc3c(=O)c2C(c2cccc(O)c2)N1c1nncs1 (configuration not stated),,inactive: -3.74%
CC(=O)Nc1ccc(S(=O)(=O)N2CCC(N(C)CCC(C)C)CC2)cc1,,inactive: -14.4%
CC(C)C(NC(=O)c1ccc(F)cc1)C(=O)N1CCOCC1 (configuration not stated),,inactive: 9.29%
Cc1ccc(S(=O)(=O)N2CCN(c3ncnc4sccc34)CC2)cc1,active: 3.26 µM,
COc1cccc(CNC(=O)C2=C(C)C(=O)OC23CCN(C(C)=O)CC3)c1OC,,inactive: -22.9%
O=C(CSc1cn(CCNC(=O)c2ccccc2)c2ccccc12)NCc1ccco1,"inconclusive [inhibitor, single point]",
CC[C@@H]1CCCCc2ccccc2[C@H](C(=O)C[C@H](O)CC(C)=O)OC1=O,,inactive: -10.2%

SMILES,Potency,"activity change, negative = growth inhibition"
O=C(CN(CCO)c1ccccc1)Nc1cccc(S(=O)(=O)N2CCCC2)c1,"inconclusive [inhibitor, partial curve, poor fit]",
COc1ccc2c(c1)C(CC(C)=O)N(c1ccc(-c3cccs3)cc1)C(c1ccsc1)=C2 (configuration not stated),active: 4.61 µM,
CCCc1nc2c(C)cc(Br)cn2c1Cc1ccsc1,active: 23.1 µM,
Cc1cc(NC(=O)CSc2nc3ccccc3[nH]2)no1,,inactive: -29.4%
CCN(CC)C(=O)C(=O)N/N=C/c1cccs1,,inactive: 5.72%
Cc1c(C(=O)NCc2cccnc2)oc2ccc(S(=O)(=O)N3CCCCC3)cc12,active: 14.1 µM,
COc1ccc(NS(=O)(=O)c2ccc(S(=O)(=O)N3CCOCC3)cc2)cc1,active: 16.4 µM,
COc1cccc(C(=O)N2CCC(C(=O)Nc3cccc(Cl)c3)CC2)c1,active: 23.1 µM,
CCCCCCN1CCN(C2CN(Cc3cn(Cc4ccccc4)nn3)S(=O)(=O)C2)CC1 (configuration not stated),"inconclusive [inhibitor, partial curve]",
C[C@@H](C1[C@@H](O)CC2C3C=CC4C[C@@H](O)CC[C@]4(C)[C@H]3CC[C@@]21C)[C@@H]1CCCCN1 (some centres not stated),active: 1.16 µM,
Cc1csc(=O)n1CC(=O)OCC(=O)NC(C)c1ccc(F)cc1 (configuration not stated),,inactive: 0.618%
CN(C)c1cccc(C(=O)N2CCC(c3c[nH]c4ccccc34)(c3c[nH]c4ccccc34)CC2)c1,"inconclusive [inhibitor, single point]",
O=C(O)C(Cc1ccccc1)N1C(=O)c2c(Cl)c(Cl)c(Cl)c(Cl)c2C1=O (configuration not stated),,inactive: -6.31%
CC(Oc1ccc(Br)cc1)C(=O)NC1CCCCCC1 (configuration not stated),"inconclusive [inhibitor, partial curve, poor fit]",
Cc1nnc2c3ccccc3c(-c3cccc4ccccc34)nn12,"inconclusive [inhibitor, single point]",
O=C1CCSc2ccc(Cl)cc2N1Cc1cccc(Cl)c1,active: 20.6 µM,
CC(=O)c1ccc(NC(=S)N2CCC(Cc3ccccc3)CC2)cc1,"inconclusive [inhibitor, partial curve, poor fit]",
C=CCn1cccc(/C=C/C(=O)c2ccc(C(C)(C)C)cc2)c1=S,active: 7.31 µM,
O=C(COCc1cc(-c2cccs2)on1)N1CCN(c2ccccc2)CC1,"inconclusive [inhibitor, single point]",
CCC1Oc2ccc(C)cc2N(CC(=O)N(Cc2ccc3c(c2)OCO3)CC2CCCO2)C1=O (configuration not stated),"inconclusive [inhibitor, single point]",
CCn1c(SCC(=O)NNC(=S)Nc2ccc(C)cc2)nnc1-c1ccc(Cl)cc1,"inconclusive [inhibitor, single point]",
COc1ccc(CNC(=O)C2CCN(S(=O)(=O)c3cccc4nsnc34)CC2)cc1,"inconclusive [inhibitor, single point]",
Cc1ccc(-c2nc(S(=O)(=O)c3ccc(F)cc3)c(SCC(=O)NCC3CCCO3)o2)cc1 (configuration not stated),"inconclusive [inhibitor, partial curve]",
O=C1C[C@H]2C=CCc3cccc(c32)CN1Cc1ccc(Cl)cc1,active: 12.6 µM,
CC(=O)NCCNS(=O)(=O)c1ccc(C)c([N+](=O)[O-])c1,,inactive: 3.4%
